Data from PubChem BioAssay AID504332 (National Center for Advancing Translational Sciences (NCATS), 2011).
Out of some 350,000 compounds screened, about 31,000 (8.9%) were called active. The shares of active, inactive and inconclusive entries below differ from those in the screen. The call rests on the fitted dose curve; in most records, active means well fitted inhibition curve with a large enough effect; inconclusive means small, poorly fitted or top-dose-only effect; inactive means no such curve, though single readings can be large or run the other way. Potencies beside an inconclusive call are fits to weak or partial responses and may not hold up.

What follows are compounds tested against Histone-lysine N-methyltransferase EHMT2 (Homo sapiens) (UniProt Q96KQ7) (assay: qHTS Assay for Inhibitors of Histone Lysine Methyltransferase G9a). Settings: G9a H3K9 monomethylation, AlphaScreen, 2 h; activity, negative = inhibition: at 59 µM (top of the series) unless noted.
Summary of the method: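 Quantitative HTS format: methyltransferase activity on a biotin-tagged H3K9 peptide is measured by AlphaScreen, using a rabbit anti-monomethyl-H3K9 antibody with streptavidin donor and anti-IgG acceptor beads. Final levels are 20 nM enzyme, 500 nM peptide, 20 uM SAM; 2 h RT.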
Further: nearly all actives have a fitted effect of over 75% in size.
On the % scale 0 is the no-effect control and ±100 the full control effect; potency means the concentration at half of the fitted maximal effect; tags describe the fitted curve by direction and shape.

UniProt Q96KQ7, sequence (Q96KQ7 whole entry, looked up): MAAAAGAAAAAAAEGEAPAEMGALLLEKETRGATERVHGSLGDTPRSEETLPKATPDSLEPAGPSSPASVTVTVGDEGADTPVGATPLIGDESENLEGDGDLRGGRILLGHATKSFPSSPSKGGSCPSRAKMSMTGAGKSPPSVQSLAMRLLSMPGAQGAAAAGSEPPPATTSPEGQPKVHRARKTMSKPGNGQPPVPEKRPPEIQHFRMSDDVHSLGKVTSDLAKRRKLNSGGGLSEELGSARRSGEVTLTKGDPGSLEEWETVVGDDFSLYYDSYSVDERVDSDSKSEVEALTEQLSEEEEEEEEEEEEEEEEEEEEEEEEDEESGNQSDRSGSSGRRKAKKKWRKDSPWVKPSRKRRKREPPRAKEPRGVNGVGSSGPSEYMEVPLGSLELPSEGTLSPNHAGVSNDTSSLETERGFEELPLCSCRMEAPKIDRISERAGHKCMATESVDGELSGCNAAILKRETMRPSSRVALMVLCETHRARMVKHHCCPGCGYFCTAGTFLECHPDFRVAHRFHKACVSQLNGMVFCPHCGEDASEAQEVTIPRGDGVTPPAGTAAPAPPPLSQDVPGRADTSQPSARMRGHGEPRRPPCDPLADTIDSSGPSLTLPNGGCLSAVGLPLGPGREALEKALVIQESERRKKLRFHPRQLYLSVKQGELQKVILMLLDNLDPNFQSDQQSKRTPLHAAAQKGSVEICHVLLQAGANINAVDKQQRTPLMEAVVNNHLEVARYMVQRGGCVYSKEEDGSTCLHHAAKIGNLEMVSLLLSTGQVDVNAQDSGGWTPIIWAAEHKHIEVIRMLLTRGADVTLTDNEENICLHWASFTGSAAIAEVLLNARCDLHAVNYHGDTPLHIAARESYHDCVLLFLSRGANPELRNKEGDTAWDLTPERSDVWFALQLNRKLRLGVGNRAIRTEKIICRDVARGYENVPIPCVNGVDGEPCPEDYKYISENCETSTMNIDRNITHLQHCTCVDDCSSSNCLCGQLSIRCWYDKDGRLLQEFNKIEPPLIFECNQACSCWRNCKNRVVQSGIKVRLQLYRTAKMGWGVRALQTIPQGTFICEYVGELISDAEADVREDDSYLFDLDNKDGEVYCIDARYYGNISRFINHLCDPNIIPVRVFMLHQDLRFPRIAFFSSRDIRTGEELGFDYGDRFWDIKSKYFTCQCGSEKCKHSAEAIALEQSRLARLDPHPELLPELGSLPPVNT

Row | Compound | Potency | activity, negative = inhibition
1 | Cc1ccc(N2C(=O)C3C(C2=O)N2CCCN2C3c2ccccc2)cc1C (stereo not drawn) | inconclusive: 39.8 µM [inhibitor, partial curve, poor fit] | 
2 | Cc1ccc(CCNC(=O)c2ccc3c(c2)nc2n3CCC(C)C2)cc1 (stereo not drawn) | inactive | 
3 | N#Cc1ccccc1S(=O)(=O)N1CCN(C(=O)CCC2CCCC2)CC1 | inconclusive: 1.78 µM [inhibitor, partial curve, poor fit] | 
4 | O=C(/C=C/c1ccc(O)c(O)c1)c1ccc(S(=O)(=O)N2CCCCCC2)cc1 | active: 5.01 µM | 
5 | Cc1cn[nH]c1 | active: 18.9 µM | 
6 | COc1ccccc1C1CC(c2cccc(NS(C)(=O)=O)c2)=NN1S(=O)(=O)c1ccccc1 (stereo not drawn) | inconclusive: 44.7 µM [inhibitor, partial curve] | 
7 | Cc1ccc2oc(-c3cccc(NC(=O)c4cc(-n5cnnc5)ccc4Cl)c3)nc2c1 | inconclusive: 22.4 µM [inhibitor, single point] | 
8 | Cc1ccc(CNS(=O)(=O)c2ccc3[nH]c4c(c3c2)CCCC4)cc1 | inconclusive: 3.16 µM [inhibitor, full curve] | 
9 | CCCNCC1COc2ccccc2O1 (stereo not drawn) | inconclusive: 7.94 µM [inhibitor, full curve, poor fit] | 
10 | COc1ccc(C(=O)NC(C(=O)N2CCc3ccccc32)C(C)C)cc1 (stereo not drawn) | inactive | 
11 | COc1ccc(OC)c(NC(=O)CN(C)CCOc2ccc(Br)cc2)c1 | inconclusive: 79.4 µM [inhibitor, partial curve, poor fit] | 
12 | CC(C)CNC(=O)C(=O)NCC(c1ccc2c(c1)OCO2)N1CCOCC1 (stereo not drawn) | inconclusive: 3.55 µM [inhibitor, partial curve, poor fit] | 
13 | Cc1ccccc1-n1nnnc1SCC(=O)Nc1ccc(N2CCN(C)CC2)cc1 | active: 50.1 µM | 
14 | Cc1scc(C(=O)N/N=C/c2ccc([N+](=O)[O-])o2)c1C | inconclusive: 1.78 µM [inhibitor, partial curve, poor fit] | 
15 | Cc1nnc(N/N=C/C(C)c2ccccc2)[nH]c1=O (stereo not drawn) |  | inconclusive: -78% [inhibitor] [at 12.7 µM]
16 | COc1ccc(NC2=NC(=S)N(c3ccccc3C)C23CCCCC3)cc1 | inconclusive: 17.8 µM [inhibitor, partial curve, poor fit] | 
17 | COC(=O)[C@@]1(Cc2ccc(F)cc2)[C@@H]2[C@@H](CC(=O)[C@H]2CC(=O)C(=O)N(C)C)CN1C(=O)c1ccccc1 | inconclusive: 89.1 µM [inhibitor, single point] | 
18 | Cc1cc(C)c2[nH]c(=O)c(C(c3nnnn3C(C)(C)C)N3CCN(C(=O)c4ccco4)CC3)cc2c1 (stereo not drawn) | inconclusive: 2.24 µM [inhibitor, partial curve] | 
19 | Cc1cccc(N=Nc2cn[nH]c2-c2ccco2)c1 | inconclusive: 31.6 µM [inhibitor, partial curve] | 
20 | CCN1C(=O)C(Cc2nc3ccccc3c(=O)n2-c2ccc(OC)cc2)c2cc(C)ccc21 (stereo not drawn) | inconclusive: 10 µM [inhibitor, partial curve] | 
21 | Cc1cc(C)nc(N(C#N)S(=O)(=O)c2ccccc2Cl)n1 | inconclusive: 20 µM [inhibitor, single point] | 
22 | CCN(CCNC(=O)c1ccc2nc(-c3ccccc3NC(C)=O)c(=O)[nH]c2c1)c1ccccc1 | inconclusive: 89.1 µM [inhibitor, single point] | 
23 | COc1ccccc1-c1nc(C#N)c(N2CCC(Cc3ccccc3)CC2)o1 | inconclusive: 0.794 µM [inhibitor, full curve, poor fit] | 

Row | Compound | Potency | activity, negative = inhibition
24 | CCN(CCNC(=O)CS(=O)(=O)Cc1nc(-c2cccc(OC)c2)oc1C)c1ccccc1 |  | inconclusive: -93.3% [inhibitor]
25 | Cc1cc(C(=O)CN2C(=O)NC3(CCCC3)C2=O)c(C)n1-c1ccc2c(c1)OCO2 | inconclusive: 15.8 µM [inhibitor, partial curve, poor fit] | 
26 | O=C(COc1ccccc1)NCCc1csc(-c2cccc(F)c2)n1 | inactive | 
27 | CCCCNc1c([N+](=O)[O-])cc(C)cc1[N+](=O)[O-] | active: 39.8 µM | 
28 | C/[N+]([O-])=C\c1coc2ccccc2c1=O | inactive | 
29 | N#Cc1cc(NC(=O)c2ccc(F)cc2)c(=O)n2c1[nH]c1ccccc12 | active: 3.55 µM | 
30 | COc1cc(/C=C2\SC(=O)N(Cc3ccc(Cl)cc3)C2=O)cc([N+](=O)[O-])c1O | inactive | 
31 | Cc1ccc(C)c(Nc2nc(-c3ccccc3)c3cc(Br)ccc3n2)c1 | inactive | 
32 | O=C(/C=C/c1ccc([N+](=O)[O-])cc1)NCCc1ccccc1 | inconclusive: 63.1 µM [inhibitor, partial curve, poor fit] | 
33 | CCCN(CC(=O)Nc1ccc(F)c(F)c1F)C(=O)CCc1nc2ccccc2c(=O)[nH]1 |  | inactive: -35.3% [at 12.7 µM]
34 | CCN(CC)CCNC(=O)C(=O)NCC(c1cccnc1)N1CCN(c2ccccc2)CC1 (stereo not drawn) | inactive | 
35 | COc1ccc(N2C(=O)C(Cl)=C(N3CCCC3)C2=O)cc1 | inconclusive: 70.8 µM [inhibitor, single point] | 
36 | O=[N+]([O-])c1cccc(N=NN(CCO)c2cccc([N+](=O)[O-])c2)c1 | inconclusive: 50.1 µM [inhibitor, partial curve] | 
37 | COc1ccc(C2(C)NC(=O)N(CC(=O)Nc3ccc4[nH]c(=O)[nH]c4c3)C2=O)cc1 (stereo not drawn) | inactive | 
38 | COc1ccc(Nc2cc(C(=O)N3CCc4ccccc4C3)c3ccccc3n2)c(OC)c1 | active: 17.8 µM | 
39 | N#Cc1ccc(NC(=O)Cn2c3[n+](c4ccc(C(F)(F)F)cc42)CCCCC3)cc1 | inconclusive: 39.8 µM [inhibitor, partial curve, poor fit] | 
40 | COc1ccc(/C=N/NC(=O)CCn2cnc(-c3ccccc3)c2-c2ccccc2)cc1OC | inconclusive: 8.91 µM [inhibitor, full curve] | 
41 | CCNS(=O)(=O)c1ccc(NC(=O)Nc2cccc(OC)c2)cc1 | inconclusive: 35.5 µM [inhibitor, partial curve] | 
42 | Cc1oc(-c2ccc(Cl)cc2)cc1C(=O)/C(C#N)=C/Nc1ccccc1 | active: 28.2 µM | 
43 | CCOC(=O)N1CCC(NC(=O)CS(=O)(=O)Cc2nc(-c3ccccc3C)oc2C)CC1 | inconclusive: 79.4 µM [inhibitor, single point] | 
44 | CC(C)(C)OC(=O)N1CCC(c2c(C(=O)NC3CCCCC3)cnn2-c2cccc(F)c2)CC1 | inactive | 
45 | CC(C)(C)c1cc(C(=O)N/N=C/c2ccc(-c3ccccc3[N+](=O)[O-])o2)n[nH]1 | active: 39.8 µM | 
46 | O=C(O)C1C2C=CC(C2)C1C(=O)OCc1ccccc1 (stereo not drawn) |  | inactive: 5.47% [at 12.7 µM]

Row | Compound | Potency | activity, negative = inhibition
47 | O=S(=O)(Nc1nc2ccccc2nc1Cl)c1ccc(F)cc1 | inactive | 
48 | CN(C)c1ccc(-c2nccc(Nc3ccc(F)cc3)n2)cc1 |  | inactive: 1.45% [at 0.501 µM]
49 | NC(=O)C1CCN(C2CC(=O)N(Cc3cccs3)C2=O)CC1 (stereo not drawn) | inconclusive: 35.5 µM [inhibitor, single point] | 
50 | O=C(Nc1cccc([N+](=O)[O-])c1)c1ccc2nc(N3C(=O)CCC3=O)sc2c1 | active: 11.2 µM | 
51 | COc1ccc(C(C(=O)NCC2CCCO2)N(C(=O)Cn2nnc3ccccc32)c2ccc(NC(C)=O)cc2)c(OC)c1 (stereo not drawn) | inactive | 
52 | COc1cc(C(c2c(C)[nH][nH]c2=O)c2c(C)[nH][nH]c2=O)ccc1OS(=O)(=O)c1ccc(C)cc1 | active: 2.82 µM | 
53 | Cc1ccc(N(C)S(=O)(=O)c2ccc3[nH]c4c(c3c2)CCCC4)cc1 | inconclusive: 12.6 µM [inhibitor, partial curve] | 
54 | O=C(CCN1C(=O)/C(=C/c2ccccc2Cl)SC1=S)N1CCOCC1 | inconclusive: 50.1 µM [inhibitor, partial curve] | 
55 | CN1CCN(CC(=O)c2ccccc2F)CC1 | active: 4.47 µM | 
56 | NC(=O)C1CCCN(C(=O)CCCNC(=O)c2ccc(Cl)cc2)C1 (stereo not drawn) | inconclusive: 39.8 µM [inhibitor, single point] | 
57 | CC(NC(=O)c1ccc(NC(=O)c2nsc3ccccc23)cc1)c1ccccc1 (stereo not drawn) | inactive | 
58 | COc1ccc(NC(=S)NC(NC(C)=O)C(Cl)(Cl)Cl)c([N+](=O)[O-])c1 (stereo not drawn) | active: 11.2 µM | 
59 | CSC(=NNC(=O)c1ccc(O)cc1)SC | inconclusive: 20 µM [inhibitor, partial curve, poor fit] | 
60 | Cc1cccc(Nc2nnc(SC/C(O)=C(\C#N)c3nc4ccccc4[nH]3)s2)c1 | active: 15.8 µM | 
61 | Cc1ccc(C(=O)Nc2ccccc2C(=O)O)cc1S(=O)(=O)NC1CCCCC1 | active: 70.8 µM | 
62 | Cc1ccc(NC(=O)Cn2nnc3ccccc3c2=O)cc1C | inactive | 
63 | CCOc1ccc(NCc2cc3cc(OC)ccc3[nH]c2=O)cc1 | inconclusive: 6.31 µM [inhibitor, partial curve] | 
64 | CCN(CC)S(=O)(=O)c1cc(NC(=O)COc2ccc(C#N)cc2OC)ccc1C | inactive | 
65 | O=S(=O)(NCc1ccccc1)c1ccc(S(=O)(=O)N(Cc2cccs2)CC2CCCO2)cc1 (stereo not drawn) | inconclusive: 3.16 µM [inhibitor, single point] | 
66 | COCCOC(=O)C1=C(C)NC2=C(C(=O)CCC2)C1c1ccc(N(C)C)cc1 (stereo not drawn) | inconclusive: 8.91 µM [inhibitor, partial curve, poor fit] | 
67 | COC(=O)c1cc(NC(=O)c2cc(-c3ccccc3Cl)oc2C(F)(F)F)ccc1N1CCOCC1 | inconclusive: 50.1 µM [inhibitor, partial curve, poor fit] | 
68 | COc1ccc(S(=O)(=O)N2CCN(C)CC2)c(C)c1 | inconclusive: 28.2 µM [inhibitor, single point] | 
